Measurements taken from PubChem BioAssay AID686979 (National Center for Advancing Translational Sciences (NCATS), 2013).
“And” between values parts separate entries of the source, which are not always exact repeats. Equal entries are not always repeated. The campaign covered roughly 420,000 compounds. About 50,000 (12%) were called active. Inconclusive means that the source gave no clear call. Such entries were picked first, then a sample of the others. Calls come from the whole dose curve; as a rule, active = well fitted inhibition curve with a large enough effect; inconclusive = small, poorly fitted or top-dose-only effect; inactive = flat fitted curve, though single readings scatter. A potency beside an inconclusive call is a rough fit, not a confirmed value.

Assay: qHTS for Inhibitors of human tyrosyl-DNA phosphodiesterase 1 (TDP1): qHTS in cells in presence of CPT; note: nearly all actives have a fitted effect of over 55% in size
Settings: chicken DT40 Tdp1-/-;hTDP1 cells + 20 nM CPT, ATP luminescence, 48 h; activity change, negative = growth inhibition: at 46.2 µM (top of the series) unless noted
Summary of the method: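 Cell growth measured by CellTiter-Glo luminescence after a minimum 48 h, 37 C compound exposure with 20 nM CPT in Tdp1-knockout DT40 cells stably expressing hTDP1, seeded 400/well; qHTS titration format.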
% is set by controls: 0 for no effect and ±100 for the full control effect; potency is the fitted concentration of half-maximal effect; tags give direction and shape of the fitted curve.

| Compound | Potency | activity change, negative = growth inhibition |
| --- | --- | --- |
| COc1ccc(C(=O)Nc2ccc(C(=O)O)cc2NC(=O)c2ccc(OC)cc2)cc1 | inactive | – |
| O=C(C1CCC(C(=O)N2CCc3ccccc32)CC1)N1CCc2ccccc21 (configuration not stated) | inactive | – |
| COc1cc(C(=O)OCC(=O)Nc2cc(C)on2)ccc1OCc1ccccc1Cl | inconclusive: 25.9 µM [inhibitor, single point] | – |
| CCOc1ccc2[nH]c(C)c(CN3CCN(CC)CC3)c(=O)c2c1 | inactive | – |
| CC(=O)c1cccc2c(O)c(C3=Nc4ccccc4C3=O)[nH]c12 | active: 18.4 µM | – |
| CCc1ccc(/C=N/NC(=O)Cc2cccn2C)cc1 | inactive | – |
| COCCNC(=O)CCCn1c(=O)[nH]c2ccsc2c1=O | inactive | – |
| Brc1ccc(-c2noc(-c3ccccc3)n2)o1 | inactive | – |
| O=C(CCN(CCO)Cc1ccccc1)Nc1ccc(Br)cc1 | inconclusive: 29.1 µM [inhibitor, single point] | – |
| Cc1ccc(NC2=C(NC(=O)c3ccccc3)C(=O)c3ccccc3C2=O)cc1Cl | active: 8.2 µM | – |
| COc1ccc(C)cc1NS(=O)(=O)c1c(C)nc2sc(C)cn2c1=O | inconclusive: 14.6 µM [inhibitor, partial curve] | – |
| CCOc1ccccc1NC(=O)CSc1ccc2nnc(CCNS(=O)(=O)c3ccccc3)n2n1 | inactive | – |
| COc1ccc(C(=O)OCC(=O)Nc2cc(C)on2)cc1F | inactive | – |
| COc1cc(C(C)=O)ccc1OCc1cc(C(=O)N(C)CCC2CCCCO2)no1 (configuration not stated) | inactive | – |
| COc1cccc(N2CCN(C(=O)C3CCN(S(=O)(=O)c4ccc5c(c4)CC(C)N5C(C)=O)CC3)CC2)c1 (configuration not stated) | inconclusive: 14.6 µM [inhibitor, partial curve, poor fit] | – |
| Cc1ccc(S(=O)(=O)N(C)CC(=O)Nc2ccncc2)cc1 | inconclusive: 7.31 µM [inhibitor, partial curve] | – |
| NS(=O)(=O)c1cccc(NC(=O)CN2CCc3ccccc32)c1 | inconclusive: 29.1 µM [inhibitor, single point] | – |
| CCCCn1c(SCc2c(C)noc2C)nc2cc(S(N)(=O)=O)ccc21 | active: 13 µM | – |
| CN(C)c1ccc(N/C=C/C(=O)c2ccco2)cc1 | active: 20.6 µM | – |
| COc1ccc(-n2cc(C(=O)N(C)c3cc(C)ccc3OC)c3ccccc3c2=O)cc1 | inconclusive: 23.1 µM [inhibitor, partial curve, poor fit] | – |
| COc1cc(CNCc2ccccc2Cl)ccc1OCC(=O)NC1CCCCC1 | inconclusive: 29.1 µM [inhibitor, single point] | – |
| COc1ccccc1NC(=O)C1=C(C)Nc2nc(SCC(=O)c3ccc(C)cc3)nn2C1c1ccccc1C (configuration not stated) | inconclusive: 2.31 µM [inhibitor, partial curve] | – |
| O=C(c1ccco1)N1CCC(N2CCN(c3ccccc3)CC2)CC1 | inactive | – |
| CCOC(=O)N1CCN(Cc2nc3ccc([N+](=O)[O-])cc3c(=O)n2-c2ccccc2F)CC1 | inconclusive: 20.6 µM [inhibitor, single point] | – |

| Compound | Potency | activity change, negative = growth inhibition |
| --- | --- | --- |
| Cc1ccc(Cl)cc1N(C)C(=O)c1noc2c1CCCCC2 | inconclusive: 29.1 µM [inhibitor, single point] | – |
| Cc1ccc(/C=N/Nc2nc(C(C)(C)C)cs2)o1 | inactive | – |
| CCCN1CCC(=O)N([C@H](CSc2ccccc2)CC(C)C)CC1 | inconclusive: 35.5 µM [inhibitor, single point] and inconclusive: 29.1 µM [inhibitor, single point] | – |
| O=C(CCc1ccccc1)NC(=S)Nc1ccc(S(=O)(=O)N2CCOCC2)cc1 | inconclusive: 23.1 µM [inhibitor, partial curve] | – |
| Cc1sc(NC(=O)c2cccc([N+](=O)[O-])c2)c(C(N)=O)c1-c1ccc(C(C)(C)C)cc1 | inconclusive: 25.9 µM [inhibitor, single point] | – |
| CN(C)CCNC(=O)CCCn1c(=O)c2cccn2c2ccccc21 | inactive | – |
| CCOC(=O)C1CCN(C(=O)CCc2c(C)nc3cc(-c4ccccc4)nn3c2C)CC1 | inconclusive: 13 µM [inhibitor, single point] | – |
| O=C(Nc1nccs1)c1cccc(N2C(=O)c3cccc4c([N+](=O)[O-])ccc(c34)C2=O)c1 | active: 5.17 µM | – |
| CCOC(=O)N1CCN(S(=O)(=O)c2ccc(C(=O)Nc3ccc(F)cc3F)cc2)CC1 | active: 2.59 µM | – |
| CN(C)CCN(Cc1ccccc1)S(=O)(=O)c1ccc(-c2cc(C(F)(F)F)on2)s1 | active: 14.6 µM | – |
| CC(C)c1ccc(NC2CCCN(C(=O)c3ccsc3)C2)cc1 (configuration not stated) | active: 23.1 µM | – |
| CC1CC(C)CN(S(=O)(=O)c2ccc(F)c(C(=O)Nc3ccc(Cl)cc3F)c2)C1 (configuration not stated) | – | inconclusive: -30% [inhibitor] |
| COc1ccccc1C(C)NC(=O)c1ccccc1SCC(=O)N1CCCC1 (configuration not stated) | inactive | – |
| COc1ccc(S(=O)(=O)NCc2cccnc2)cc1NC(=O)c1ccc(C)cc1 | inconclusive: 16.4 µM [inhibitor, single point] | – |
| CCO[C@@H]1OC(C(=O)N2CCOCC2)=C[C@H](c2ccc(C(F)(F)F)cc2)[C@H]1CCCO | active: 14.6 µM | – |
| CCOC(=O)c1cnc2c(OC)cccc2c1N1CCN(c2ccccc2OC)CC1 | inconclusive: 23.1 µM [inhibitor, single point] | – |
| CCCc1nc2ccccc2c(=O)n1/N=C/c1ccc(O)cc1O | inconclusive: 29.1 µM [inhibitor, single point] | – |
| CCCCC(=O)Nc1c2c(nn1-c1cccc(C)c1C)CS(=O)(=O)C2 | inactive | – |
| CCOC(=O)c1[nH]cnc1C(=O)O | inactive | – |
| CCOc1ccc(NS(=O)(=O)c2ccc(C(=O)NCC(c3ccc(OC)cc3)N3CCCC3)cc2)cc1 (configuration not stated) | inconclusive: 23.1 µM [inhibitor, single point] | – |
| CCC(=O)N1CCc2cc(CNS(=O)(=O)c3c(C)cc(C)cc3C)ccc21 | inconclusive: 29.1 µM [inhibitor, single point] | – |
| Cc1cccc(N2CCN(C(=O)Cn3ccc4ccccc4c3=O)CC2)c1C | active: 12.6 µM | – |
| COc1ccccc1CC(=N)N1C[C@@H]2C(=O)CCC(c3ccccc3)(c3ccccc3)[C@@H]2C1 | active: 11.9 µM | – |
